Source: paper PMC4336329 (PLoS ONE, 2015)
The whole screen tested about 310,000 compounds, of which about 14,000 (4.5%) showed an effect of 50% or more. Effects have a minus sign here. The list shows a part of the results.

Each molecule was assayed against human ether-à-go-go-related gene (hERG) potassium channel (human, UniProt Q12809) (assay: primary screen, population patch clamp on CHO cells stably expressing hERG).
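Further: peak tail current of the secondary pulse compared with the same well before compound.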

Sequence of human ether-à-go-go-related gene (hERG) potassium channel (Q12809 whole entry, looked up): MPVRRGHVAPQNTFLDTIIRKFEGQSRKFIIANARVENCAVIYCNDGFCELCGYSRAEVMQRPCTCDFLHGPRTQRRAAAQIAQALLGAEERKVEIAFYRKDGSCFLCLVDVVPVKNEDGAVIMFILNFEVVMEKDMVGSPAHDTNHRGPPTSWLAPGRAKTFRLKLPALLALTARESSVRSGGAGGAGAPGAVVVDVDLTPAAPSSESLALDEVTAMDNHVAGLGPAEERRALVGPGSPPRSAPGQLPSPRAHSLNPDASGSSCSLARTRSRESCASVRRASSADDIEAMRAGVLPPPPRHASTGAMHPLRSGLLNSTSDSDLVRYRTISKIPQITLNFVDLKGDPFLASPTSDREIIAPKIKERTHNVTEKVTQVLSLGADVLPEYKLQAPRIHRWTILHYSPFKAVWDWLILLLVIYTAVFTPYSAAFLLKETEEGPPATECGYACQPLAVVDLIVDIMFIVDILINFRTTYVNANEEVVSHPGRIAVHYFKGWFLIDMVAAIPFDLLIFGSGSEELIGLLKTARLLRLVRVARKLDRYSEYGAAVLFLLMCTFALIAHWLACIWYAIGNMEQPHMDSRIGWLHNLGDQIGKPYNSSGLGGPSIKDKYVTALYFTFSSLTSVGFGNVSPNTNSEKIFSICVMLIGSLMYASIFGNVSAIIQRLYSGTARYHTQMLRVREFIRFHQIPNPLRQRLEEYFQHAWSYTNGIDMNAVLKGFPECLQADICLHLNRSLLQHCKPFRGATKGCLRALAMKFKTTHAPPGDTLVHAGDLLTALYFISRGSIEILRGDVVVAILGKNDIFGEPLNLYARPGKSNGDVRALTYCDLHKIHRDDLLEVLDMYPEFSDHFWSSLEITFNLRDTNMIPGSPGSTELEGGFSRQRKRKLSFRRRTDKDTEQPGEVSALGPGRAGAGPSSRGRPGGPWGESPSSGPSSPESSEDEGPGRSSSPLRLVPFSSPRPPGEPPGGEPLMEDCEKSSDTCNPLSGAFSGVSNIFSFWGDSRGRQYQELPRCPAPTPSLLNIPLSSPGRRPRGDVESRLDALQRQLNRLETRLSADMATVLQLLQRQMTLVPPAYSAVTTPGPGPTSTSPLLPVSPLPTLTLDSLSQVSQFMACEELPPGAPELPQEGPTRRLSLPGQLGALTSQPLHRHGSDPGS

Row | SMILES | hERG current change (%, negative = inhibition) at 10uM
1 | Cc1ccc(C)c(Cn2nnc3c(=O)[nH]c(C4CCN(C(=O)c5cccs5)CC4)nc32)c1 | -66.5%
2 | COc1ccc(N)c2c1C(=O)c1ccccc1C2=O | -10.4%
3 | CC(=O)c1cccc(NC(=O)c2ccc(OCc3c(C)noc3C)cc2)c1 | 19.2%
4 | CCOc1ccc(N2CC(C(=O)Nc3nnc(SCCOC)s3)CC2=O)cc1 (centres unmarked) | -37.4%
5 | CC(C)(C)NC(=O)NC(=O)CN1CCN(S(=O)(=O)c2ccccc2)CC1 | 7.92%
6 | COc1ccc(Br)c(OC)c1C(=O)NC(=O)Nc1nc(C)cc(C)n1 | -5.8%
7 | Cc1cccc(NC(=O)c2ccc3ccccc3n2)c1C | 16.3%
8 | CNS(=O)(=O)c1ccc(Cl)nc1 | 4.79%
9 | O=C(Nc1ccc(OC(F)(F)F)cc1)C1CCCN(S(=O)(=O)c2cccnc2)C1 (centres unmarked) | -38%
10 | CC(C)c1cccc(C(C)C)c1OC(=O)[C@H]1OC(c2ccc(Br)cc2)=C[C@@H]1c1ccc(Br)cc1 | 9.4%
11 | COc1ccc(-c2nc(CSCC(=O)N3CCC(C(N)=O)CC3)c(C)o2)cc1OC | -0.184%
12 | ClCc1csc(-c2ccccc2Cl)n1 | -0.651%
13 | COc1cc(S(=O)(=O)NCc2ccc3c(c2)OCO3)c(OC)cc1C | 16.1%
14 | COc1ccc(C(=O)NC(=C(Cl)Cl)S(=O)(=O)c2ccc(C)cc2)cc1 | -1.64%
15 | COc1cc(NC(=O)NS(=O)(=O)c2ccc(C)cc2)cc(OC)c1 | -1.04%
16 | CCc1ccc2oc(=O)cc(CN3CCCCC3C)c2c1.Cl (centres unmarked) | -16.7%
17 | COc1ccc(S(=O)(=O)N(C)CC(=O)Nc2ccccc2C(F)(F)F)cc1 | 4.25%
18 | CC(=O)Nc1ccc(OCC(O)CNC(C)C)cc1 (centres unmarked) | 18.5%
19 | O=C(NNc1ccccc1)C(CCO)C(=O)NNc1ccccc1 | 15.8%
20 | COc1ccc(OC)c(NC(=O)CSc2ccc3nnc(-c4ccccn4)n3n2)c1 | -69%
21 | CN(C(=O)CCc1nnc(Cc2ccc(-c3ccccc3)cc2)o1)C1CCOCC1 | -22.1%
22 | COc1ccc(CNC(=O)CCc2nnc3ccc(NCCCN4CCCC4=O)nn23)cc1 | 5.89%

Row | SMILES | hERG current change (%, negative = inhibition) at 10uM
23 | O=C(NCCOc1ccccc1F)c1ccc2c(=O)n3c(nc2c1)CCC3 | -20.8%
24 | COc1ccc(C2Nc3ccccc3C(=O)N2Cc2ccccc2)cc1 (centres unmarked) | 3.75%
25 | O=C(Nc1ccccc1OC(F)F)c1ccc(F)cc1 | -13.3%
26 | Cn1c(-c2ccccc2)c(/C=N/NC(=O)c2ccc(O)cc2)c2ccccc21 | 7.43%
27 | CCOc1ccc(S(=O)(=O)N2CCC(C(=O)OCc3ccc(OC)cc3)CC2)cc1 | -24.7%
28 | CC(NC(=O)C(=O)N1CCOCC1)C(c1cccs1)N1CCN(c2ccc(F)cc2)CC1 (centres unmarked) | -0.955%
29 | CN1C(=O)C(=Cc2sc(=O)n(-c3ccccc3)c2N(C)C)C(=O)N(C)C1=O | -0.919%
30 | CCNC(=O)NC(=O)CSc1ccc(NC(C)=O)cc1 | 11%
31 | COc1ccc(C(=O)n2c(-c3ccco3)nc3ccccc32)cc1 | -28.4%
32 | CC(C)(C)N(Cc1ccccc1)C(=O)COC(=O)[C@@H]1CCCN1C(=O)c1cccs1 | -2.57%
33 | O=C(O)c1ccc(-c2nc(-c3ccccc3)cs2)cc1 | 18.3%
34 | O=C(c1cnn2c(C(F)(F)F)cc(-c3ccccc3)nc12)N1CCOCC1 | 0.0897%
35 | O=C(NCc1ccc(Cl)cc1)c1csc(-c2cccnc2)n1 | -37%
36 | Cc1ccc(C2CC(=O)Oc3cc(O)ccc32)cc1 (centres unmarked) | -15.2%
37 | O=C(N/N=C/c1ccccc1)c1[nH]ncc1Br | 24.6%
38 | COc1cc2c(cc1OC)CN(C(=O)/C=C/c1ccccc1[N+](=O)[O-])CC2 | -6.27%
39 | Cc1ccc(-n2c(SCC(N)=O)nnc2-c2cnccn2)cc1 | 22%
40 | CCc1ccc2nc3sc(C(=O)Nc4nnc(CC)s4)c(N)c3cc2c1 | 14.3%
41 | CC(C)(C)c1ccc(NC(=O)N2CCCN(c3ccc([N+](=O)[O-])cn3)CC2)cc1 | -25.9%
42 | O=C1NC(=O)N(Cc2ccc(F)cc2)C(=O)/C1=C\c1ccc(N2CCCC2)cc1 | 11.8%
43 | Cc1nc2ccccc2cc1OCc1ccc(Cl)cc1 | 15.3%
44 | COc1cccc(C2CC(c3cccs3)=NN2C(=O)CSc2nc3ccccc3s2)c1OC (centres unmarked) | 13.1%
